Whole data set: some 110,000 compounds, median “z-score” near -0.1, cut for the highest 2% near 2. The list shows a part of the results.
Molecular target: Metabotropic glutamate receptor 8 (Rattus norvegicus) (UniProt P70579)
Test: mGluR8 Gi/Go-coupled signaling modulation – cell-based, rat, thallium flux, HTS, primary screen (AID 488969)
Details: HEK293 rat mGluR8, GIRK (G protein-gated inwardly rectifying potassium channel) thallium flux, FluoZin2; at 10 µM; stronger effect = higher value; submaximal glutamate (EC20) added with thallium

UniProt P70579, sequence (P70579 whole entry, looked up): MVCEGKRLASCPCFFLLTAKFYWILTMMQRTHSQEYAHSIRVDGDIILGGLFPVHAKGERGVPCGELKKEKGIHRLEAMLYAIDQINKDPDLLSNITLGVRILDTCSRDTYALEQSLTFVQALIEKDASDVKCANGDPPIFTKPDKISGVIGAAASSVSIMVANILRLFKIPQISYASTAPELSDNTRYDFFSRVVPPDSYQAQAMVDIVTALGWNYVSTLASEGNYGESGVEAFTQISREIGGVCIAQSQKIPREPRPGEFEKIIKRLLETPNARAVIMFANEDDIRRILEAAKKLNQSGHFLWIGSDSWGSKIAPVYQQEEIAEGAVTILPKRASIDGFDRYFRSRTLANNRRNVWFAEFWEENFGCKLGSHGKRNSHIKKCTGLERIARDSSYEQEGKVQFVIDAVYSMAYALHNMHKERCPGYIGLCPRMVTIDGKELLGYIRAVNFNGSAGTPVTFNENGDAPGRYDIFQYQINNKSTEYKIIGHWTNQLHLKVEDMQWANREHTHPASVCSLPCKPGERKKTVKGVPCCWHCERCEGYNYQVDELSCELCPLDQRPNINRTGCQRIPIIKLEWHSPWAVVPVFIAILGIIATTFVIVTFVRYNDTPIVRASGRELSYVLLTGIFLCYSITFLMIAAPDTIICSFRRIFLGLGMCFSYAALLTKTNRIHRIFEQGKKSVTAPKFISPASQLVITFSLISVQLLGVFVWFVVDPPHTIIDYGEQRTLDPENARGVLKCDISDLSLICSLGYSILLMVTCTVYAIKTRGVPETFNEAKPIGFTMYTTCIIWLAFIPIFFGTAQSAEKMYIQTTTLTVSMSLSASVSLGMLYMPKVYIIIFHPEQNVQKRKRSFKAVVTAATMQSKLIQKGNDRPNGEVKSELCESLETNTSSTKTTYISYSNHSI

Row | SMILES | z-score
1 | COc1ccc(CN(C#N)c2nc(SC)nc(N(C)C)n2)cc1 | -0.283
2 | Cc1ccc(C(=O)NNS(=O)(=O)c2ccccc2[N+](=O)[O-])cc1 | 0.000248
3 | COC(=O)c1ccc(NC(=O)c2ccccc2)o1 | -0.0143
4 | CC(Sc1n[nH]c(N)n1)C(=O)C12CC3CC(CC(C3)C1)C2 (stereo unspecified) | -0.124
5 | COc1ccc(-c2cc(C(=O)OCC(=O)N(C)C)c3ccccc3n2)cc1 | -0.683
6 | O=C(CSc1nc(-c2ccco2)cc(C(F)(F)F)n1)Nc1ccccc1C(F)(F)F | -0.404
7 | O=C(/C=C/c1ccccc1)c1ccccn1 | -0.107
8 | COCCn1nnnc1C(c1cccs1)N1CCN(c2cccc(C(F)(F)F)c2)CC1 (stereo unspecified) | 0.0215
9 | O=C(Nc1ncccc1Cl)C(Sc1ccccc1)c1ccccc1 (stereo unspecified) | -0.096
10 | Cc1sc2ncnc(NCc3ccccc3)c2c1C | -0.366
11 | Cc1cc(Cl)ccc1OCC(=O)NCCOc1nc(N2CCCCC2)nc(N2CCOCC2)n1 | -0.876
12 | Cc1ccc(C2C(C(=O)c3sc(C)nc3C)=C(O)C(=O)N2CCN(C)C)o1 (stereo unspecified) | 0.405
13 | O=C(NCSC1=NCCS1)c1ccccc1 | 0.175
14 | COc1cc(/C=N/Nc2nn3cnnc3c3ccccc23)ccc1O | -0.551
15 | CCOC(=O)C1CCN(C(=O)COc2ccc(Cl)cc2Cl)CC1 | -0.471
16 | CC(=O)Oc1ccc(OC(C)=O)c(SCCCCCN2CCOCC2)c1 | -0.0266
17 | CCCS(=O)(=O)N1CCCC(C(=O)NCCc2ccc(OC)c(OC)c2)C1 (stereo unspecified) | -0.113
18 | Cc1ccc(C(=O)Nc2ccc(Cl)cn2)cc1S(=O)(=O)N1CCOCC1 | -0.00908
19 | Cc1ccc(S(=O)(=O)NC(c2ccccc2)C(C)C(=O)n2nc(C)cc2C)cc1 (stereo unspecified) | -0.193

Row | SMILES | z-score
20 | CCn1nc(NC(=O)c2ccco2)c2cc3ccc(C)cc3nc21 | -0.15
21 | C=CCNC(=O)c1ccc(N(CC=C)S(C)(=O)=O)cc1 | -0.0506
22 | Cc1ccc(-n2ncc3c(N4CCCC4)ncnc32)c(C)c1 | 0.147
23 | CCCCNC(=O)COC(=O)c1cc(S(=O)(=O)N2CCCCCC2)ccc1OC | 0.28
24 | CON1C(=O)C(=O)N(OC)C2CCCCC21 (stereo unspecified) | -0.198
25 | COc1ccc([N+](=O)[O-])cc1NC(=O)CC(C)c1ccccc1 (stereo unspecified) | -0.513
26 | COc1ccc(-n2c(SCC(=O)NCc3ccco3)nnc2-c2c[nH]c3ccccc23)cc1 | -0.512
27 | CCN=C1SC(CC(=O)NC2CCCCC2)C(=O)N1CC (stereo unspecified) | 0.215
28 | COc1ccc(N(C(=O)c2ccccc2C)S(=O)(=O)c2cccs2)cc1 | -1.15
29 | O=S(=O)(N1CCCCC1)N1CCN(CC(O)COc2ccc3cc(Br)ccc3c2)CC1 (stereo unspecified) | -0.125
30 | COc1ccccc1NC(C)C(=O)Nc1ccc(C(C)=O)cc1 (stereo unspecified) | -0.0352
31 | O=C(Nc1ccc(Cl)cc1)C1CCCN(S(=O)(=O)c2cnc[nH]2)C1 (stereo unspecified) | 0.605
32 | COc1ccc(C(=O)C2CCN(C(=O)c3ccc(C)cc3)CC2)cc1 | -0.285
33 | Cc1cccc(C(C)C)c1NC(=O)CSc1nncn1C | -0.617
34 | Cc1ccccc1Cn1ccc(-c2ccc(Cl)cc2)c(C#N)c1=O | -0.0203
35 | O=C1C2C3C=CC(C3)C2C(=O)N1CNc1ccccc1 (stereo unspecified) | 0.175
36 | CC(c1ccccc1)N1C(=O)c2ccc(C(=O)NCc3ccco3)cc2C1=O (stereo unspecified) | -0.54
37 | Cc1nc(C)c(CC(=O)N/N=C/c2ccc(O)cc2)c(=O)[nH]1 | -0.137
38 | Cc1ccc(C(=O)N/C(=C\c2ccc(Br)cc2)c2nc(=S)[nH][nH]2)cc1 | -0.0138

Row | SMILES | z-score
39 | O=C(CCC1CCCCC1)NC1=NCCS1 | -0.119
40 | COc1ccc(-c2nnc(SCC(=O)NC(=O)NCc3ccco3)o2)cc1 | 0.00322
41 | COc1ccc(OC)c(S(=O)(=O)N2CCC(C(=O)NCc3ccccc3OC)CC2)c1 | -0.549
42 | Clc1ccc(OCc2nnnn2-c2ccccc2)cc1 | -0.208
43 | Cc1cc(S(=O)(=O)N2CCN(c3ccccc3O)CC2)c(C)s1 | -0.601
44 | O=C(CSc1nnc(-c2cccs2)o1)N1CCOCC1 | 0.0399
45 | CSc1ccccc1NC(=O)c1ccccc1N(Cc1ccccc1)S(C)(=O)=O | -0.0768
46 | CC(=C/c1ccccc1)/C=N/NC(=O)CSc1nc(C)cc(C)n1 | -0.195
47 | CCSC1=N/C(=C\c2cccc(F)c2)C(=O)S1 | 0.803
48 | N#CCc1nc2c3c4c(sc3ncn2n1)CCCC4 | 0.301
49 | CC(=O)c1ccc(OCC(O)CN2C(C)CCCC2C)cc1 (stereo unspecified) | -0.288
50 | COc1ccc(-n2cnnc2SC(C)C(=O)Nc2cccc([N+](=O)[O-])c2)cc1 (stereo unspecified) | -0.431
51 | COC(=O)c1cccc(NC(=O)c2cccc(OC)c2)c1 | -0.141
52 | O=C1c2ccccc2C(=O)N1CCc1nc2ccccc2c(=O)n1CCCn1ccnc1 | 0.0357
53 | COc1cccc2c(=O)n(CC(=O)Nc3ccccc3F)ccc12 | 0.461
54 | CCOC(=O)C1CCN(C(=O)C(C)Sc2ccc(Cl)cc2)CC1 (stereo unspecified) | -0.123
55 | CC(C)C(NC(=O)c1ccc(C(C)(C)C)cc1)C(=O)NC1=NCCS1 (stereo unspecified) | -1.01
56 | O=C(NCC1CCCO1)c1c(O)c2cccc3c2n(c1=O)CC3 (stereo unspecified) | 0.105

From PubChem BioAssay AID488969 (Vanderbilt High Throughput Screening Facility, 2010)
